# Measured values as given in article PMC4336329 (PLoS ONE, 2015).
# Screen size: about 310,000 compounds; about 14,000 (4.5%) showed an effect of 50% or more. Effects have a minus sign here. This is one part of the list.
# Biological target: human ether-à-go-go-related gene (hERG) potassium channel (human, UniProt Q12809)
# Assay: primary screen, population patch clamp on CHO cells stably expressing hERG
# 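Also: peak tail current of the secondary pulse compared with the same well before compound.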
# Chain of human ether-à-go-go-related gene (hERG) potassium channel (Q12809 whole entry, looked up): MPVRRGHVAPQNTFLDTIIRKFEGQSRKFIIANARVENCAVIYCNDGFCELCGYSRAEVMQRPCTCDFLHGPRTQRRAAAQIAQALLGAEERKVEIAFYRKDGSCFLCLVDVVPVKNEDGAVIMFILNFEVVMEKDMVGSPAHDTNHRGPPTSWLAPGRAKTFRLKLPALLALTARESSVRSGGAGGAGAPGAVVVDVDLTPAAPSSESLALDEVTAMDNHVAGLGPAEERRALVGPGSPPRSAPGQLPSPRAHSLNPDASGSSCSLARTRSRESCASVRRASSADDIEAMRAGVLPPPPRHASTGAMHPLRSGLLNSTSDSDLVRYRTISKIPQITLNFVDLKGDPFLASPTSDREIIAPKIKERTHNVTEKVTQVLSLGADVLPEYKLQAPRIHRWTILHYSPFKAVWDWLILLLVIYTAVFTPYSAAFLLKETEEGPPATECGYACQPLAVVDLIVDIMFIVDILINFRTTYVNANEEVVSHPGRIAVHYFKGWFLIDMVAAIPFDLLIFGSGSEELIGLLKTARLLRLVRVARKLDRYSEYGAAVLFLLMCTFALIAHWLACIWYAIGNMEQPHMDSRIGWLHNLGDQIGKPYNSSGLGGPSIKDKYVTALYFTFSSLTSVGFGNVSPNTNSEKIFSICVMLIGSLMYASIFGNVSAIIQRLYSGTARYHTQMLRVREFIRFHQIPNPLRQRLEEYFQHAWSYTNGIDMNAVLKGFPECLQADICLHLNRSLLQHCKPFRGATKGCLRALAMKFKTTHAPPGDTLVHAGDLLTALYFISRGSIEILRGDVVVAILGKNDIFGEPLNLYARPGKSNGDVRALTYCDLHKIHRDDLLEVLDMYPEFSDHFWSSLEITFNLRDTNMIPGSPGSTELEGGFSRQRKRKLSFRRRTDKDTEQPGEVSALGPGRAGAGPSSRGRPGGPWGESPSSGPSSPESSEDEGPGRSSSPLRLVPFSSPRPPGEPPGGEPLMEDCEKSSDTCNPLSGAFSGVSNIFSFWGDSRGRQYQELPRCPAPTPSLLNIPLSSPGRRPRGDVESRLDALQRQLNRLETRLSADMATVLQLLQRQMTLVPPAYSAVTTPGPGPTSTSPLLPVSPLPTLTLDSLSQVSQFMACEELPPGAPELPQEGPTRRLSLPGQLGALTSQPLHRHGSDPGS
row,Structure (SMILES),"hERG current change (%, negative = inhibition) at 10uM [%]"
1,CC(=O)N(C)c1ccc(NC(=O)c2ccc([N+](=O)[O-])cc2Cl)cc1,-13.5
2,COc1ccc(CCN2C(=O)CSC2=Nc2ccc(C)cc2C)cc1OC,14.9
3,COc1ccc(N2C(=O)C3CCCN3C2c2cc(OC)c(OC)cc2OC)cc1 (stereo not shown),-4.23
4,NC1=NC(=O)C2(COC(c3cccnc3)OC2)S1 (stereo not shown),17.9
5,Cc1ccc(CNc2cccnc2)cc1,2.23
6,COc1cc(/C=C(/NC(=O)c2ccccc2Cl)C(=O)O)cc(OC)c1OC,21.9
7,CCOc1ccc(NC(=O)CN(C)C(=O)c2cc(-c3ccc(OC)cc3)nc3ccccc23)cc1OCC,-2.15
8,CCOC(=O)c1c(NC(=O)CN2CCN(c3ccc(Cl)cc3)CC2)sc(C)c1C,-14.9
9,O=C(O)c1cc2c(ccc3ccccc32)o1,4.33
10,CCC(C)C(=O)N1CCCC(c2nc(-c3cccs3)no2)C1 (stereo not shown),5.17
11,CN(C(=O)COC(=O)c1cc2c(s1)CCCCC2)C1CCS(=O)(=O)C1 (stereo not shown),-7.88
12,O=C(Nc1nccs1)c1cc2sccc2n1Cc1ccc(F)cc1,-2.56
13,O=C(NCc1ccccn1)c1cn(CCc2ccccc2)nn1,16
14,COc1ccccc1CN1C(=O)c2ccncc2C1=O,-18.8
15,CCOC(=O)C1=C(C)N=c2s/c(=C\c3ccc(C(=O)O)cc3)c(=O)n2C1c1ccc(OC)cc1OC (stereo not shown),0.835
16,CCCCNC(=O)c1ccccc1NC(=O)CN(c1ccccc1)S(=O)(=O)N(C)C,1.49
17,COc1ccc(C/C(N)=N/OC(=O)c2cccc([N+](=O)[O-])c2)cc1,-44.2
18,CC(C)COP(=O)(c1ccc(N(C)C)cc1)C(O)c1ccc(N(C)C)cc1 (stereo not shown),15.9
19,CCOC(=O)Cn1c2c(c(=N)c3c1CCC3)CCCC2.Cl,18.5
20,CC(C)c1c(C(=O)N/N=C/c2cccc(OCc3ccccc3)c2)nnn1-c1nonc1N,26.6
21,O=C(N/N=C/c1ccc(OCc2ccc(F)cc2)cc1)c1ccccc1,12.6
22,COc1ccc(/C=N/Nc2cc(C)nc(NS(=O)(=O)c3ccc(C)cc3)n2)cc1,-17.5
23,O=C(O)C1CCCCC1C(=O)Nc1cc(Cl)ccc1Cl (stereo not shown),10.3
24,COc1cccc(NC(=O)Nc2ccccc2C(N)=O)c1,1.99
25,CCN(CC)S(=O)(=O)c1cccc(-c2nnc(SCCCC(=O)c3ccccc3)o2)c1,-23.8
26,Cc1cccc(N2CCN(S(=O)(=O)c3c(C)[nH]c(C)c3C(=O)N3CCCCC3)CC2)c1C,0.772
27,Cc1ccc(C)c(N2N=C(C(=O)OCc3nnc(-c4ccccc4)o3)CCC2=O)c1,-5.45
28,O=C(COc1ccc(-n2cnnn2)cc1)NC(=O)NCc1ccccc1,-34.1

row,Structure (SMILES),"hERG current change (%, negative = inhibition) at 10uM [%]"
1,O=C(OCC(O)COC(=O)c1cccnc1)c1cccnc1,15.5
2,Cc1ccc(C(=O)NNC(=O)COc2ccc(Cl)cc2C)o1,-57.6
3,COc1ccc(S(=O)(=O)N2CCOC2CNC(=O)C(=O)NCCc2c[nH]c3ccccc23)cc1 (stereo not shown),-17.9
4,Cc1c(Cl)c([N+](=O)[O-])nn1CC(=O)NCc1ccco1,1.49
5,Cc1nc2ccccc2c(=O)n1CCCO,7.75
6,Cc1cccc(-c2noc(CNC(=O)c3ccoc3C)n2)c1,1.72
7,Cn1ncc(C#N)c1/N=C/N1CCCCCC1,-2.33
8,COCCNC(=O)CN1C(=O)NC(c2ccccc2)(c2ccccc2)C1=O,-2.7
9,Cc1ccnc(NS(=O)(=O)c2ccc(Cl)nc2)c1,6.59
10,Cc1ccc(C(=O)NNC(=O)c2ccc(NC(=O)C(C)(C)C)cc2)cc1,14.5
11,Cc1nn(CCC#N)c(C)c1Oc1ccccc1O,6.13
12,O=C(CCC1N=C2c3ccccc3N=C(SCc3cccc(Cl)c3)N2C1=O)NCc1ccco1 (stereo not shown),-42.2
13,CC(Sc1nncs1)C(=O)NCC(=O)Nc1ccc(F)c(F)c1F (stereo not shown),11
14,O=C1CC2(CCCC2)C(=O)N1CN1CCN(S(=O)(=O)c2ccc(Cl)c(Cl)c2)CC1,3.53
15,COc1ccc(N(C)S(=O)(=O)c2ccc3c(c2)CC(C)N3C(=O)C2CC2)c(OC)c1 (stereo not shown),3.79
16,O=[N+]([O-])c1ccc2nc(Cl)nc(-c3ccccc3)c2c1,-31.5
17,Cc1ccc(OCc2nnc(SCC(=O)c3ccccc3)n2-c2ccccc2)cc1,1.75
18,O=C(Cn1nnc(-c2ccccc2NC(=O)C2CC2)n1)NC1CCCCC1,-5.23
19,CNS(=O)(=O)c1ccc(N2CCCC2=O)c([N+](=O)[O-])c1,-4.8
20,Cc1[nH]nc2c1C1(CCN(Cc3ccccc3)CC1)C(C#N)=C(N)O2,-42
21,C[C@H](NC(=O)c1nc[nH]c1C(=O)NCC(=O)OCc1ccccc1)C(=O)OCc1ccccc1,9.72
22,CCOc1ccc2nc(SCc3ccc(CC(=O)O)cc3)c(C#N)cc2c1,23.2
23,Cc1ccn2c(CNCc3cnn(C)c3)c(C(=O)N3CCCCCC3)nc2c1,-26.2
24,CC(=O)NC(c1cc(F)c2cccnc2c1O)C1CC1 (stereo not shown),-1.58
25,CCOC(=O)C1=C(c2ccccc2)N=C2SCC(=O)N2C1c1ccc(O)c(OC)c1 (stereo not shown),-12.8
26,Cc1ccc(C2(c3ccccc3)NC(=O)N(CC(=O)NCc3ccccc3)C2=O)cc1C (stereo not shown),-23
27,CCN(CC)S(=O)(=O)c1cccc(-c2n[nH]c(=S)n2/N=C/c2ccc(OC)cc2)c1,11.5
